According to PMC4336329 (PLoS ONE, 2015):
Hit rate of the full screen: of about 310,000 compounds, about 2,200 (0.71%) showed an effect of 50% or more. The effect is printed as a negative number. The list shows a part of the results.

These compounds were tested against human ether-à-go-go-related gene (hERG) potassium channel (human, UniProt Q12809) (assay: primary screen, population patch clamp on CHO cells stably expressing hERG).
Sequence of human ether-à-go-go-related gene (hERG) potassium channel (Q12809 whole entry, looked up): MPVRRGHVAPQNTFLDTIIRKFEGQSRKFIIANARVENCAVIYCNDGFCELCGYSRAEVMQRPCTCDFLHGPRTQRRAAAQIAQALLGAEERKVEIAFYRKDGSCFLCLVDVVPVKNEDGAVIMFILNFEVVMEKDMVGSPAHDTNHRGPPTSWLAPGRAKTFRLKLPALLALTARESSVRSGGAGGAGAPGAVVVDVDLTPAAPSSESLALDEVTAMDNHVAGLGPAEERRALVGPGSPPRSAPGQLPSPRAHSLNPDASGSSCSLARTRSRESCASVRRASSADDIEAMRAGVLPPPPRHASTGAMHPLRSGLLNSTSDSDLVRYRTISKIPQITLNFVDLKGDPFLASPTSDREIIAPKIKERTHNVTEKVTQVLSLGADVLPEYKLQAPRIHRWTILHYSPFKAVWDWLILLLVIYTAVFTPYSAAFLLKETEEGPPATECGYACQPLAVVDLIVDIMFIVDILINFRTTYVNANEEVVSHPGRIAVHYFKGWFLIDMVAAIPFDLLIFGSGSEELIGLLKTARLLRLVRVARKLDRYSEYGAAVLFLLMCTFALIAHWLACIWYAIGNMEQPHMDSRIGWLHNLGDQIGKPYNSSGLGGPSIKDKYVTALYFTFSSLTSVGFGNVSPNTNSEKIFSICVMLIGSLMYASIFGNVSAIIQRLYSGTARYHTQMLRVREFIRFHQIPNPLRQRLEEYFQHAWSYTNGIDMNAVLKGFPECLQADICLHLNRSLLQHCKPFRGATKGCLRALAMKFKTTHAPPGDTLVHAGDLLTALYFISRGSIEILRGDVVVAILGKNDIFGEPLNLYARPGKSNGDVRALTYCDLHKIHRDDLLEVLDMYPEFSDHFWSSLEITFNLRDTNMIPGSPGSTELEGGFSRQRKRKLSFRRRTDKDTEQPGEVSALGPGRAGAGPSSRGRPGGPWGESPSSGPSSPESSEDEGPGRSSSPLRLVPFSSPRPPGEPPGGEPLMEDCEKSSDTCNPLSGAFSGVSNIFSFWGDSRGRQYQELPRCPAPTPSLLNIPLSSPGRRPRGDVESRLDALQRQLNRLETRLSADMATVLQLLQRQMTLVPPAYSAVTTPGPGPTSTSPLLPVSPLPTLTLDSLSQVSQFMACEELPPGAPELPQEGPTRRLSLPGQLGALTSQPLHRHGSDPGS

SMILES	hERG current change (%, negative = inhibition) at 1uM [%]
CC(=O)N(C)c1ccc(NC(=O)CCN2C(=O)c3ccccc3C2=O)cc1	17.1
Cc1ccc(S(=O)(=O)NNC(=O)Nc2cccc(F)c2)c(C)c1	9.93
O=c1[nH]c2cc3c(cc2cc1C(c1nnnn1Cc1ccccc1)N1CCCCCC1)OCCO3 (centres unmarked)	-13.7
O=C(NCCc1ccc2c(c1)OCCO2)c1cccc(S(=O)(=O)N2CCCC2)c1	8.06
O=C(CCC(=O)N1CCN(c2ccccn2)CC1)Nc1nnc(C2CCCCC2)s1	11.2
Cc1onc(C(N)=O)c1C(=O)Nc1ncc(C(F)(F)F)cc1Cl	14
CC(C)(C)c1cc(C(=O)NCCCn2ccnc2)cc(C(C)(C)C)c1.Cl	13.1
CCCCCCCCOC(=O)c1nc(Cl)c(Cl)c(N)c1Cl	-64.4
O=c1[nH]c(CN2CCN(S(=O)(=O)c3ccc(Cl)cc3)CC2)nc2cc(Cl)ccc12	9.83
CCn1c(COc2ccc(=O)n(-c3ccccc3)n2)n[nH]c1=S	18.8
COC(=O)C1=C(c2ccc(-c3ccccc3)c(F)c2)C[C@@H]2CC[C@H]1N2C(=O)NCCc1ccccc1	15.4
O=S(=O)(c1ccc(NC(=S)N/N=C/c2ccc(O)c(O)c2)cc1)N1CCOCC1	9.21
Cc1cccc(C(=O)N(NC(=O)Oc2ccccc2)C(C)(C)C)c1	-0.163
O=C(Nc1ccc(S(=O)(=O)NCc2ccco2)cc1)c1ccc2ccccc2n1	2.4
O=C(c1ccccc1)c1ccc(N2CCN(C(=O)c3cccc(F)c3F)CC2)c(F)c1	-4.18
COc1ccccc1-c1nn2c(C3COc4ccccc4O3)nnc2s1 (centres unmarked)	-3.14
Cc1ccn2c(C(=O)NNC(=O)Nc3ccc(Cl)cc3)c(C)nc2c1	14.6
CC(OC(=O)c1cc(S(=O)(=O)N2CCOCC2)ccc1Br)C(=O)N1CCOCC1 (centres unmarked)	-0.764
C=CCN(CC=C)Cc1ccc(C(=O)OC)o1	-3.84
COC(=O)C(Cc1ccccc1)NC(=O)CNS(=O)(=O)c1ccc(Br)cc1 (centres unmarked)	0.383
CCCc1nc2sc3c(c2c(=O)n1N)CCC3	5.93
COc1cccc(CN(C(=O)c2ccccc2)C2CCS(=O)(=O)C2)c1 (centres unmarked)	14.2
COCCn1c(SCC(=O)Nc2ccc(C)cc2C)nc2c(oc3ccccc32)c1=O	9.1

SMILES	hERG current change (%, negative = inhibition) at 1uM [%]
Cc1ccc(CN2CCC(c3cc(-c4cccs4)n[nH]3)CC2)cc1	-85.6
Cc1cccc(NC(=O)c2ccc(NCCO)c([N+](=O)[O-])c2)n1	-31.4
Cc1ccc(CNC(=O)C2CCCC2)cc1	10.4
Nc1c(C(=O)N2CCOCC2)sc2nc3c(cc12)CCCC3	16
Cc1ccc(F)cc1NC(=O)Nc1cc(C(C)(C)C)nn1C	9.22
CSC(=NC#N)N1CCN(c2ccc([N+](=O)[O-])cc2)CC1	-80.9
CC(C)[C@H](NC(N)=O)C(=O)Nc1ccc(OCc2ccccc2)cc1	4.06
CCC(Oc1ccccc1)C(=O)Nc1ccccc1C(=O)N1CCOCC1 (centres unmarked)	15.8
CC(C)(C)NC(=O)Nc1ccc(Cn2cc(C(F)(F)F)ccc2=O)cc1	4.85
Cc1ccc(-c2cc(C(=O)NCC3CCCO3)c3ccccc3n2)cc1C (centres unmarked)	5.51
O=C(NNc1ccc(-c2csnn2)cc1)c1cc(Cl)cc(Cl)c1	6.05
O=C(O)c1ccc(O)cc1O	6.46
O=C(Nc1nc2ccc(S(=O)(=O)N3CCCCC3)cc2s1)c1ccncc1	-24
CCC(Sc1nnc(C)c(=O)[nH]1)C(=O)Nc1cccc2ccccc12 (centres unmarked)	14.3
CCOc1ccc(Nc2cc(=O)n(C)c(=O)n2C)cc1	10.2
Cc1cccc(N=C2Sc3nc4c(C)c(C)ccc4cc3CN2CCN2CCOCC2)c1	17.5
Cc1coc2cc3oc(=O)c(CCC(=O)NCCN4CCOCC4)c(C)c3cc12	3.81
CC1=C(CC(=O)c2ccccc2)C(=O)c2ccccc2C1=O	4.26
CC(C)(C)[C@H]1C=C(C(=O)NC2CC2)O[C@@H](OCCCCO)C1	21
Cn1cc(CNCCN2CCCCC2=O)c(-c2cccc(Cl)c2)n1	8.56
NC(=O)CC(NC(=O)c1ccc(Br)cc1)c1ccc(NC2CCCCC2)c([N+](=O)[O-])c1 (centres unmarked)	12.4
Cc1cc(NC(=O)CCC(=O)N(C(C(=O)NC(C)(C)C)c2ccccc2Cl)C(C)(C)C)no1 (centres unmarked)	19.5
COc1ccc(CC(=O)NCc2n[nH]c(=S)n2-c2ccc(Br)cc2)cc1	13.6

SMILES	hERG current change (%, negative = inhibition) at 1uM [%]
O=C(NCc1ccc(Cl)cc1)C1CCC(CNc2c(N3CCOCC3)c(=O)c2=O)CC1 (centres unmarked)	17.2
CC(C)(O)C#Cc1ccc(C(=O)N2CCN(c3ccc([N+](=O)[O-])cc3)CC2)cc1	-16.8
Cc1[nH]n(-c2ccc(Br)cc2)c(=O)c1/C=N/NC(=O)c1ccccc1	12.2
COc1ccc(-c2noc(COc3ccc4c(c3)OCO4)n2)cc1OC	-0.961
COc1ccccc1CNC(=O)COC(=O)c1nc(Cl)ccc1Cl	8.06
Cn1cc(C(=O)Nc2ccc(F)c(Cl)c2)cn1	5.16
CC1=C(C(=O)OCC2CCCCC2)C(c2ccc(O)cc2)NC(=O)N1 (centres unmarked)	13.2
CCCCN(CC)Cc1ccc(CNC(=O)Nc2ccc(F)cc2)o1	-12.4
CN(C(=O)COC(=O)CNC(=O)c1ccc(Cl)cc1Cl)c1ccccc1	20.3
CCOC(=O)CCNC(=O)N1CCC(CCC(=O)NCc2ccc(F)cc2)CC1	9.83
C=CCN(Cc1cc(OC)ccc1OC)S(=O)(=O)N(C)C	7.8
COC(=O)C1=C(C)N(c2ccc(OC)c(OC)c2)C(=O)C1	8.06
O=C1C2C3CCCC3=C3CCCC3C2C(=O)N1c1ccc(F)cc1 (centres unmarked)	2.62
c1ccc2c(-c3nnc4n3CCCCC4)cc(-c3ccncc3)nc2c1	-13.9
CC1(C)CC(=O)c2cnc(NC(=O)CCc3ccccc3)nc2C1	7.42
Cc1ccc2nc(-c3ccc4c(c3)OCCO4)cc(C(=O)O)c2c1	8.22
COc1ccc(OCCNC(=O)C(Cc2c[nH]c3ccccc23)NC(C)=O)cc1 (centres unmarked)	4.38
NS(=O)(=O)c1ccc(CCNC(=O)C(=O)c2c[nH]c3ccccc23)cc1	2.22
Cc1ccc(C(C(=O)NCc2ccccc2)N(C(=O)c2csnn2)c2cccc3ccccc23)o1 (centres unmarked)	-0.148
O=S(=O)(c1ccc(-n2cnnn2)cc1)N1CCNCC1	-0.693
CCC(Sc1nc2n[nH]c(C)c2c(=N)n1-c1cccc(Cl)c1)C(=O)NCCOC (centres unmarked)	-0.659
CN(C(=O)CSC1=NCCS1)c1ccccc1	18.1
COc1ccccc1NC(=O)N1CCCC1C(=O)NCc1cccs1 (centres unmarked)	4.45

SMILES	hERG current change (%, negative = inhibition) at 1uM [%]
CC(C)(C)NC(=O)Cc1ccc(S(=O)(=O)N2CCCC2)s1	21.3
O=c1oc2cc(Br)ccc2n1Cc1ccccc1	15.8
Cc1ccnc(SCCn2c(N3CCN(c4ccccc4)CC3)nc3c2c(=O)[nH]c(=O)n3C)n1	1.34
COc1ccc(Cl)cc1S(=O)(=O)NCc1cccnc1	6.51
Cc1nc(-c2ccc(F)cc2)c(CC(=O)N(C)CC(=O)Nc2ccccc2Cl)s1	5.44
Cc1ccc(C(=O)NCC(=O)N2CCCCCC2)cc1	17.9
Cc1ccc(C=Nc2ccc(N(C)C)cc2)o1	3.51
COc1cc(OC)cc(-c2nc(-c3ccc(Br)cc3)no2)c1	6.64
Cc1ccc(-c2ccnc3nc(-n4cccc4)nn23)o1	10.1
C#CCSc1n[nH]c(=O)n1-c1cccc(C(F)(F)F)c1	9.39
COCC(C)OC(=O)c1c(N)n(-c2ccc(OC)c(OC)c2)c2nc3ccccc3nc12 (centres unmarked)	7.58
COc1ccc(S[C@@H](CCN2CC[C@H](O)CCC2=O)c2ccccc2)cc1	11.9
O=S(=O)(c1ccc2nc(-c3ccccc3)[nH]c2c1)N1CCN(c2ccc(Cl)cc2)CC1	5.61
COc1cccc(C(=O)Nc2ccc(F)cc2F)c1	-1.27
CCOC(=O)c1c(C)nsc1NCc1ccccc1	8.43
Cc1cccc(C)c1NC(=O)C(C)N (centres unmarked)	-5.46
CCS(=O)(=O)N1CCC(C(=O)NCCc2ccc(OC)c(OC)c2)CC1	2.7
Cc1cc(=O)n2nc(N3CCCC3C(=O)NCc3ccccn3)sc2n1 (centres unmarked)	9.3
Cn1c(C(=O)OC(C(=O)NCC2CCCO2)c2cccnc2)cc2sccc21 (centres unmarked)	5.86
O=C1c2cccc3c([N+](=O)[O-])ccc(c23)C(=O)N1O	6.83
